# About 540 (0.36%) of roughly 150,000 compounds showed an effect of 50% or more. Some of the results follow.
# Tested on: Plasmodium falciparum
# Experiment: Primary screen in NF54 nanoGlo assay, in single point, at 2uM, 72h; a lower Z score goes with more inhibition
# Type: functional, Erythrocyte
# Details: timepoint 72 hour
SMILES,% Inhibition [%],Z score
Cc1ccc(-c2ncccc2NC(=O)N2C[C@@H]3[C@@H](CF)[C@@H]3C2)s1,-5,0.96
Cn1c(C(F)(F)F)nn(CC(=O)NCc2ccc(F)cc2)c1=O,-12,1.42
Cn1ccnc(NCC(=O)NCC2CC2)c1=O,-5,0.63
COC[C@H](NC(=O)Cn1cc(C2CC2)nn1)c1ccc(F)c(F)c1,3,-0.34
Cc1cc(F)c(C(=O)O[C@@H](C)CCN2CCCC2=O)cc1F,-8,1.07
CN(C)C(=O)CO[C@H]1CCOC[C@H]1NS(C)(=O)=O,-15,1.68
O=C(NCc1ccc(F)cc1F)C1CCN(C(=O)c2nnn3c2CO[C@H](c2ccc(F)cc2)C3)CC1,-9,1.06
C[C@H]1CN(CCO)CCN1C(=O)c1cccn1C1CCCC1,-13,1.68
CC1CCN(C(=O)C2CC2c2c(F)cccc2F)C(c2ccco2)C1 (stereo not given),1,-0.12
CN1CCN(C(=O)c2nc3cnccc3s2)CC1(C)C,4,-0.62
Cc1c(C(=O)Nc2ccccc2)[n+]([O-])cn1-c1ccc2c(c1)OCC(=O)N2,-3,0.46
Cc1ccc2sc(-c3ccc(NCc4cccnc4)cc3)nc2c1,-12,1.72
O=C(N[C@H]1CC[C@H](O)CC1)c1ccccc1NS(=O)(=O)N1CCOCC1,15,-1.91
CCn1c(=O)c(-c2nc(-c3ccc(OC)c(F)c3)no2)c(O)c2ccccc21,-3,0.36
COc1ccc(CC(=O)N2C3CCC2Cn2c(n[nH]c2=O)C3)cc1 (stereo not given),-3,0.41
CC(=O)Nc1cc(NC(C)=O)c(C)cc1C,-15,2.33
CCCn1nccc1NC(=O)CN1C[C@]2(C)COC[C@]2(C)C1,-15,1.62
O=C(CN1C(=O)N[C@]2(CCc3cc(Cl)ccc32)C1=O)c1ccc2c(c1)OCO2,0,-0.01
C[C@@](CO)(CCF)NC(=O)c1cccnn1,-7,1.33
CCc1nccn1[C@H]1CCCN(c2ncnc3[nH]ccc23)C1,-9,1.66
N#CCN(CC#N)C(=O)c1ccc2c(Br)cccc2c1,1,-0.2
Cn1ccnc1COc1ccc(C(=O)Nc2nc3cc4c(cc3s2)OCCO4)cc1,7,-0.95

SMILES,% Inhibition [%],Z score
O=c1ccccn1Cc1nc([C@H]2CCOC2)no1,-7,1.17
COc1ccccc1N1CCN(CCNC(=O)c2cnoc2C)CC1,-6,1.13
C[C@@H]1CN(Cc2cc3n(n2)CCN(c2ncc(F)cn2)C3)C[C@H](C)O1,1,-0.08
O=C(NCCCNc1ccccc1)C(=O)Nc1ccn(Cc2cccnc2)n1,-14,1.86
CC(=O)Nc1ccn2ncc(C(=O)Nc3cccc(-c4csc(C)n4)c3)c2c1,3,-0.62
O=C1[C@@H]2CCCN2C(=O)N1Cc1ccc(Cl)cc1,-8,0.81
O=C(C(c1ccccc1)c1ccccc1)N1C[C@H](O)[C@@H](F)C1,-9,1.28
CN(Cc1ccco1)c1nc(N)nc2ccc(C(=O)O)cc12,-15,1.36
CC1(C)CN(C(=O)c2ccc(F)cc2F)CC[S@+]1[O-],-10,1.37
COCC1(CNC(=O)CCCN2CCOCC2)CCCC1,-7,0.85
Cc1cc(C)nc(CN(C)C[C@H](O)C2CC2)c1,-10,1.2
CCN1CC[C@@]2(CCC1=O)CN(Cc1cscn1)CCN2C,-2,0.42
CCc1noc(C)c1C(=O)N[C@H](c1cnc2ccccc2c1)C1CC(O)C1 (stereo not given in full),-26,3.38
Cc1nc2[nH]n(C)c(=O)c2c(C)c1CCC(=O)NC1CCCCC1C (stereo not given),-8,1.04
Cc1ccc(NC2CCN(C(=O)c3cn4ccc(C)cc4n3)CC2)cc1,6,-0.73
CNS(=O)(=O)Cc1noc([C@@H]2CCCN2Cc2ccccc2)n1,-10,1.99
CC(=O)N(c1nc(C)c(C(=O)Nc2nc3ccccc3s2)s1)C(C)C,5,-0.81
Cc1cc(S(=O)(=O)N2CCCO2)c(C)s1,-8,1.26
Cc1ccc2nc(-c3ccc(N4CCOCC4)cc3)c(Nc3ccc4c(c3)OCCO4)n2c1,-1,0.16
CC(C)(C)OC(=O)N[C@H]1CCc2ncc(N)cc2C1,-3,0.31
CC1CN(S(=O)(=O)c2ccccc2)C(C)N1C(=O)N1CCOCC1 (stereo not given),11,-1.4
COc1cc([C@@H](c2c(-c3ccccc3)nn(-c3ccc(C)cc3)c2O)c2c(-c3ccccc3)[nH]n(-c3ccc(C)cc3)c2=O)ccc1O,11,-1.62

SMILES,% Inhibition [%],Z score
COc1cccc(OCc2nc(C(=O)NCc3ccon3)co2)c1,6,-1.17
OCc1ccc(-c2cn([C@H]3CCCN(c4ncccn4)C3)nn2)o1,-5,0.47
COc1ccc2ccccc2c1C1=NN(C(C)=O)[C@H](c2ccc(-c3ccccc3)cc2)O1,4,-0.49
Cc1nc(N2CCOCC2)ccc1NC(=O)N1CC[C@@H](C(F)(F)F)C1(C)C,-9,1.48
CCc1ccc(CN2C[C@H]3CC[C@@H](C2)[C@H]3N(C)C)o1,-10,1.66
Cc1nc([C@H]2CCN(c3ncnc4scc(C)c34)C2)n[nH]1,-11,1.41
CN(Cc1ncnn1C)C(=O)c1c[nH]nc1-c1ccccc1,-9,1.58
Cc1ccc(NC(=O)N(C)CCN(C)C2CCCC2)cc1F,-4,0.6
Cc1ncc(CNCCn2cc(Br)cn2)c(C)n1,-8,1.17
Cc1cc(NC(=O)CCN2CCN(S(=O)(=O)c3cccc(F)c3)CC2)no1,-13,1.18
CC(C)CCNC(=O)N1CCC[C@](C)(c2noc(-c3ccncc3)n2)C1,-13,2.07
CCc1nc(C)sc1CN1C(=O)COc2cccnc21,-15,2.17
C[C@H]1CCCN(C(=O)c2cc3ccccc3c(=O)[nH]2)CC1,-10,1.5
CC(C)c1nnc2sc([C@H]3CC34CCC4)nn12,-18,2.42
CCOC1CN(C(=O)c2cc(S(N)(=O)=O)ccc2Cl)C1,-1,0.24
COC(=O)C1CC(O)CN1Cc1ncc(Cl)cc1Cl (stereo not given),-16,2.17
CN1CCCN(C(=O)[C@H]2CC23CCN(Cc2cccn2-c2ccc(Cl)cn2)CC3)CC1,0,0.06
COC(=O)c1cc2ccc(-c3cccc(C(=O)NC[C@@H]4CCCN4)c3)cc2[nH]1,5,-0.59
Cc1nc(-c2n[nH]c3ccccc23)n(CCO)n1,-4,0.74
CC(C)(C)CC(=O)NC[C@@H](c1ccsc1)n1cccn1,-5,1.09
CN(CCC1CCCCC1)S(C)(=O)=O,5,-0.59
CCC1(CC)C(=O)N(C)C(=O)N=C1N(C)C,-1,0.16

SMILES,% Inhibition [%],Z score
O=C(N[C@H]1CCCc2[nH]ccc21)c1cc(F)c(F)c(O)c1F,5,-0.82
CNC(=O)CCC(C)(C)NC(=O)CCc1cccc(O)c1,-10,1.45
COc1ccc(-n2cc3c(c2-c2ccccc2)c(=O)n(-c2ccccc2)n3C)c(OC)c1,-5,0.84
CC#CCN(CCc1cccs1)S(=O)(=O)CC,-13,1.46
FC(F)(F)[C@H]1CCCN(c2nc(-c3cccnc3)nc3ccccc23)C1,8,-0.64
CCc1nc(-c2ccc(-c3noc(-c4ccc(Br)o4)n3)cc2)cs1,-15,1.51
CCOC(=O)NC[C@H](OC)c1ccsc1,-12,1.51
CC1=COCC(=S)C(N2CCCC2)=N1,-16,3.11
Cc1cc(NCc2nc(C)cc(=O)[nH]2)nc(C2CC2)n1,1,-0.23
CCO[C@H]1[C@H](NC(=O)c2cnccc2C)c2ccccc2C12CCNCC2,3,-0.35
Cn1cccc1[C@@H](O)CCNC(=O)C(C)(C)C,-8,1.21
CC(C)C(C)(C)CS(=O)(=O)NCCc1cn[nH]c1,-11,2
O=C(Nc1ccc(N2CCOCC2)cc1)Nc1ccc(F)cc1F,36,-4.59
c1nc(N2CC3CCCCC3C2)c2[nH]cnc2n1 (stereo not given),31,-3.9
COc1ccccc1CNC(=O)c1cnn(-c2cccc(F)c2)c1C1CCN(C(=O)OC(C)(C)C)CC1,-5,0.89
NC(=O)c1cc2c(nc1N1CCC[C@H](c3nccn3CC3CC3)C1)CCC2,-24,2.36
Cn1cc(S(=O)(=O)Nc2sc(C3CC3)nc2-c2ccccc2)cn1,-10,1.6
COc1ccc(-n2cc([C@H](C)NC(=O)CCC(F)(F)F)cn2)cc1,-18,1.63
C[C@H]1CCc2c(sc(NC(=O)CN3CCNC(=O)C3)c2C#N)C1,-41,4.76

# Reference: ChEMBL document CHEMBL4888484, “Replenishing the malaria drug discovery pipeline: Screening and hit evaluation of the MMV Hit Generation Library 1 (HGL1) against asexual blood stage Plasmodium falciparum ,using a nano luciferase reporter read-out” (2022)
